# Assay results reported in PubChem BioAssay AID493208 (National Center for Advancing Translational Sciences (NCATS), 2011).
# Among all 44,000 compounds or so, about 340 (0.77%) were called active. About 5% were inconclusive and are not listed. The call rests on the fitted dose curve; in most records, active means well fitted inhibition curve with a large enough effect; inconclusive means small, poorly fitted or top-dose-only effect; inactive means flat fitted curve, though single readings scatter. The list shows a part of the results.
# Assay: Acumen qHTS Assay for Inhibitors of the mTORC1 Signaling Pathway in MEF (Tsc2-/-, p53-/-) Cells: Sytravon;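 further: plate controls were DMSO for no effect and rapamycin for full effect; nearly all actives have a fitted effect of over 50% in size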
# Details: phospho-rpS6 immunofluorescence/PI, 24 h; series mostly up to 38.3 µM; activity change, negative = inhibition: at the top concentration
# Method in brief: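 Tsc2-/-, p53-/- MEFs (empty-vector stable line) in DMEM + 10% FBS were treated with compounds 24 h at 37 degree Celsius, fixed, and immunostained for phospho-rpS6 (Alexa-488) with propidium iodide counterstain. Laser-scanning cytometry gave % positive cells, normalized against 7.5 nM rapamycin and DMSO.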
row,Compound,"activity change, negative = inhibition"
1,Oc1ccc(NCc2ccccc2OCc2ccccc2F)cc1,inactive: -26.5%
2,CCc1ccc(NC(=O)CSc2nc3ccccc3c(=O)n2CCNC(C)=O)cc1,inactive: -4.87%
3,CC(=O)c1ccc(NC(=O)CCCSc2nc(-c3ccco3)cc(C(F)(F)F)n2)cc1,inactive: -11%
4,Cc1c(Cl)cccc1NC(=O)c1ccc2snnc2c1,inactive: 0.169%
5,CCOC(=O)c1c(C)[nH]c(CCC(=O)NCc2ccccc2Cl)c1C,inactive: 3.94%
6,CCOC(=O)c1cccc(Nc2cc(-c3ccccc3)ncn2)c1,inactive: -5.44%
7,CCOc1ccc(OCC)c(NC(=O)C2CCN(c3nnc(-n4cccc4)s3)CC2)c1,inactive: -0.955%
8,COc1ccccc1NC(=O)CCN1CCCCC1,inactive: 9.34%
9,Cc1nc(-c2ccccc2)sc1CCNC(=O)C(=O)Nc1ccc2c(c1)OCO2,inactive: 4.77%
10,Cc1ccc(N(C)C(=O)C2CCN(S(=O)(=O)c3c(C)noc3/C=C/c3c(C)cc(C)cc3C)CC2)cc1,inactive: -23.5%
11,COc1cccc(OCCSc2nc(C)c(Cc3ccccc3)c(=O)[nH]2)c1,inactive: 1.85%
12,COc1ccc(NC(=O)CCCN2C(=O)CCn3nc(-c4cn(C)c5ccccc45)cc32)cc1OC,inactive: -0.259%
13,CCOC(=O)c1cccc(NC(=O)CC2C(=O)N(c3ccc(OC)cc3)C(=O)N2C2CCCC2)c1 (stereo not given),inactive: 0.546%
14,Cc1cccc(N2CCN(S(=O)(=O)c3ccc4[nH]c5c(c4c3)CCCCC5)CC2)c1C,inactive: -18.6%
15,Cc1cccc(C(=O)NCC(=O)OCc2cc(=O)n3nc(C4CCCCC4)sc3n2)c1,inactive: -0.497%
16,COc1ccccc1C(=O)Nc1cc2c(cc1N1CCCC1)n(C)c(=O)c(=O)n2C,inactive: -0.415%
17,COc1cccc(NC(=O)C2=C(C)C(=O)OC23CCN(C(C)=O)CC3)c1,inactive: -0.612%
18,COC(=O)CN1C(=O)CSc2ccc(S(=O)(=O)Nc3cccc(C)c3C)cc21,inactive: -0.868%
19,Cc1ccc(CN2CCSc3ccc(C(=O)NCC(C)c4ccccc4)cc32)cc1 (stereo not given),inactive: -9.02%
20,COc1cc2c(cc1OC)C(COc1ccc3c(C)cc(=O)oc3c1)N(C(=O)c1cc(Cl)ccc1OC)CC2 (stereo not given),inactive: -6.61%
21,CCC(=O)N1c2ccc(S(=O)(=O)NCc3ccc(F)cc3)cc2CC1C (stereo not given),inactive: -13.2%
22,CCN(CC)C(=O)Cn1nnc2sc(-c3ccccc3)cc2c1=O,inactive: 2.61%
23,CCCOc1ccc(CNC(=O)c2ccc(-n3c(C)cc4c3CCC(C)C4)cc2)cc1 (stereo not given),inactive: -15%
24,Cc1cc2oc(C(=O)Nc3ccc(S(=O)(=O)Nc4ncccn4)cc3)cc(=O)c2cc1C,inactive: -1.15%

row,Compound,"activity change, negative = inhibition"
1,CCN(C(=O)CSc1nc2ccccc2[nH]1)c1ccccc1,inactive: -8.27%
2,Cc1ccc(NC(=O)Cn2ccn(-c3ccccc3)c(=O)c2=O)cc1,inactive: -12.6%
3,CCOc1ccc(C2NC(=O)c3c(COC)cc(C)nc3N2Cc2ccccc2)cc1OC (stereo not given),inactive: 8.8%
4,Cc1ccc(Cn2cc(S(=O)(=O)c3cccc(Cl)c3)c(=O)c3cc(F)c(N4CCOCC4)cc32)cc1,inactive: -9.3%
5,COc1cc(OC)c(NC(=O)CCc2c(C)nc3cc(-c4ccccc4OC)nn3c2C)cc1Cl,inactive: -0.0145%
6,CC(C)OC(=O)c1c(NC(=O)C2c3ccccc3Oc3ccccc32)sc2c1CCCC2,inactive: -0.74%
7,Cc1ccc(C)c(N2CCN(C(=O)c3ccc4c(c3)N(Cc3ccc(F)cc3)C(=O)c3ccccc3S4=O)CC2)c1 (stereo not given),inactive: -0.674%
8,CC1CCC(Nc2nc3c(-c4cccc(C(F)(F)F)c4)nnn3c3ccccc23)CC1 (stereo not given),inactive: -3.37%
9,Cc1ccc(NC(=O)C2CCCN(S(=O)(=O)c3cn(C(C)C)cn3)C2)c(C)c1 (stereo not given),inactive: 25.2%
10,COc1ccccc1-c1noc(CCC(=O)Nc2ccc(C)cc2C)n1,inactive: 4.21%
11,CC(=O)c1ccc(Nc2cc(C)nc3nc(Cc4ccc(Cl)cc4)nn23)cc1,inactive: -0.787%
12,CCc1ccc2oc(C(=O)Nc3cc(C)ccc3C)cc(=O)c2c1,inactive: 3.05%
13,CC(C)c1nn2c(=O)cc(COC(=O)c3ccccc3NC(=O)C3CCCCC3)nc2s1,inactive: 0%
14,O=C(Nc1cc2c(cc1C(=O)c1ccccc1Cl)OCCO2)c1ccccc1,inactive: -1.89%
15,CC1Cc2ccccc2N1C(=O)CSc1nnc(-c2ccccc2Cl)o1 (stereo not given),inactive: -2.94%
16,CN(C)c1ccc(CNC(=O)c2ccccc2NC(=O)c2nsc3ccccc23)cc1,inactive: -4.13%
17,Cc1ccc(CNC(=O)CCNS(=O)(=O)c2cccc3nsnc23)cc1,inactive: -1.61%
18,CCn1cc(C(=O)N(C)c2ccc(C(C)C)cc2)c2cc(OC)c(OC)cc2c1=O,inactive: 0%
19,Cc1ccc2nc(NC(=O)CSc3ncc(C(=O)Nc4ccc(F)cc4)c(=O)n3C)sc2c1,inactive: -3.63%
20,Cc1c(CCC(=O)N2CCCCC2)c(=O)oc2cc3occ(C(C)(C)C)c3cc12,inactive: 2.92%
21,COCCn1cc(C(=O)NCCCOC(C)C)c2c3ccccc3n(C)c2c1=O,inactive: 11.7%
22,Cc1ccc(Cc2nc3ccccc3nc2SCC(=O)N2CCN(c3ccc(F)cc3)CC2)cc1,inactive: 0%
23,CCOC(=O)c1noc2nc(C)n(Cc3cccc([N+](=O)[O-])c3)c(=O)c12,inactive: -3.23%
24,CCc1nn(CC(=O)NC(C)CCc2ccccc2)c(=O)c2cc3c(OC)cccc3n12 (stereo not given),inactive: -2.21%

row,Compound,"activity change, negative = inhibition"
1,Cc1nnc(SCC(=O)NCc2ccccc2Cl)c2nn(-c3ccccc3)c(C)c12,inactive: -0.166%
2,CCc1ccc(-n2nc(C)c3c(C)cc(=O)n(CC(=O)Nc4ccc(F)cc4C)c32)cc1,inactive: 1.99%
3,CCC(C(=O)N1CCN(c2cc(C)ccc2C)CC1)n1nc(C)n2c(cc3occc32)c1=O (stereo not given),inactive: -1.56%
4,Cc1ccc(S(=O)(=O)N2CCc3cc(C(=O)Nc4c(F)cccc4F)ccc32)cc1,inactive: -0.525%
5,Cc1ccc2c(CN3CCN(C(=O)c4ccc(Br)cc4)CC3)cc(=O)oc2c1,inactive: -3.5%
6,CCOC(=O)Cn1c(=O)n(C2CCCCC2)c2nc(-c3ccc(C(C)C)cc3)nc(C(N)=O)c21,inactive: 3.5%
7,CCOc1ccc(NC(=O)C2CCCN(c3nnc(C)c4c(C)n(-c5ccccc5)nc34)C2)cc1 (stereo not given),inactive: -0.709%
8,Cn1c(=O)c2c(nc(N3CCOCC3)n2Cc2ccc(Br)cc2)n(C)c1=O,inactive: 0.801%
9,COc1ccccc1NC(=O)CSC1=Nc2ccccc2C2=NC(CC(=O)NCc3ccccc3)C(=O)N12 (stereo not given),inactive: -2.03%
10,Cc1ccc(CN2CCN(C3CCNCC3)C(=O)C2=O)cc1,inactive: 7.27%
11,COc1ccc(NC(=O)C2CCN(c3ccc(Sc4ccc(C)cc4)nn3)CC2)c(OC)c1,inactive: 1.78%
12,O=C(CSc1ccc(-c2ccccn2)nn1)Nc1ccc(F)cc1F,inactive: -0.0229%
13,CNS(=O)(=O)c1cn(CC(=O)Nc2ccc(C(C)=O)cc2)cc1S(=O)(=O)NC,inactive: -7.99%
14,CCCCNS(=O)(=O)c1ccc(C)c(-c2nnc3c4ccccc4c(C)nn23)c1,inactive: -3.89%
15,Cc1ccc(CN2CCN(C3CCN(C(=O)Nc4ccc(C)cc4Cl)CC3)C(=O)C2=O)cc1,inactive: 4.08%
16,CC(=O)N1CCc2cc(CNC(=O)c3ccccc3Br)ccc21,inactive: -5.22%
17,O=C(NCc1cccs1)C1CCN(C(=O)N2CCOc3ccc(Cl)cc32)CC1,inactive: -1.14%
18,CC(=O)N1CCc2cc(S(=O)(=O)NC(Cc3ccccc3)C(=O)NCc3ccc(C)cc3)ccc21 (stereo not given),inactive: -3.19%
19,COc1ccc(CCNC(=O)C2CCN(S(=O)(=O)c3c(C)noc3/C=C/c3ccc(C)cc3)CC2)cc1OC,inactive: 1.15%
20,CC(C)OC(=O)c1c(-c2ccccc2)c(-c2ccccc2)nn(C)c1=O,inactive: -1.38%
21,Cc1cc(C)c(Cn2c(C3CC(=O)N(c4ccc(F)cc4)C3)nc3ccccc32)c(C)c1 (stereo not given),inactive: 0.539%
22,CC(C)CCN(C(=O)Nc1ccccc1)C(C)c1cccs1 (stereo not given),inactive: -1.56%
23,CCOC(=O)c1ccc(NC(=O)CCn2ccc(C)n2)cc1,inactive: 0.361%
24,COc1cccc(NC(=O)CSc2nc(=O)n(Cc3ccncc3)c3c2CCC3)c1,inactive: 0.194%

row,Compound,"activity change, negative = inhibition"
1,CCOC(=O)N1CCC2(CC1)OC(=O)C(C)=C2C(=O)NCc1cccc(F)c1,inactive: 0.13%
2,Cc1cccc(NC(=O)CN2C(=O)c3cccc4cccc2c34)c1C,inactive: 13.4%
3,CCCN1CCN(c2ncnc3sc(C(=O)Nc4c(C)cc(C)cc4C)c(C)c23)CC1,inactive: 10.8%
4,CCc1ccc(C(=O)c2cn(CC(=O)Nc3ccc(OC)cc3)c3cc4c(cc3c2=O)OCO4)cc1,inactive: 6.84%
5,CCC1CN(S(=O)(=O)c2cc(-c3onc(C)c3C)ccc2C)c2cc(Cl)ccc2O1 (stereo not given),inactive: -13.1%
6,NC(=O)C1(N2CCCCC2)CCN(C(=O)Nc2ccc(F)cc2F)CC1,inactive: 2.99%
7,Cc1ccc(Cn2ccnc2SCC(=O)Nc2nc3ccccc3s2)cc1,inactive: -12.5%
8,Cc1cc(NC(=O)C2CCN(S(=O)(=O)c3cccc4nsnc34)CC2)ccc1Br,inactive: 0.499%
9,NS(=O)(=O)c1ccc(NC(=O)C(=O)Nc2ccc3nc4n(c(=O)c3c2)CCCCC4)cc1,inactive: 1.67%
10,Cc1cccc(C(=O)N2c3nc(-c4ccco4)nn3C3(CCCCC3)[C@@H]3CCCC[C@@H]32)c1,inactive: -6.55%
11,Cc1cccc(-n2ncc3c(N4CCCC(C)C4)ncnc32)c1 (stereo not given),inactive: 0.566%
12,CCOc1ccc2nc(N3CCCC(C(=O)Nc4cc(Cl)c(OC)cc4OC)C3)sc2c1 (stereo not given),inactive: -4.88%
13,Cc1c(C(=O)Nc2cccc(-c3nc4ccccc4s3)c2)oc2ccccc12,inactive: -5.17%
14,CCCCCCSc1nnc2c(n1)OC(C)Nc1ccc(Br)cc1-2 (stereo not given),inactive: -11.3%
15,CSc1nn(Cc2cccc(C)c2)c(N)c1S(=O)(=O)c1ccccc1,inactive: -9.32%
16,COc1ccc(CNC(=O)c2ccc(NC(=O)N3CCSc4ccccc43)cc2)cc1,inactive: 0.207%
17,Cc1ccccc1Cn1c2ccccc2c2cnn(CC(=O)NC3CCC(C)CC3)c(=O)c21 (stereo not given),inactive: -0.38%
18,COc1cc2c(=O)n(CCC(=O)NCC3CCCO3)c(=O)n(CC(=O)Nc3ccc(C)cc3C)c2cc1OC (stereo not given),inactive: -0.757%
19,COc1cc(NC(=O)C(CC(C)C)NS(=O)(=O)c2ccc3c(c2)CCN3C(C)=O)cc(OC)c1 (stereo not given),inactive: -2.72%
20,CC(C)c1ccc2oc(-c3ccc(NC(=O)c4cccc(Br)c4)cc3)nc2c1,inactive: -22.5%
21,Cc1ccc(NC(=O)CC(C)S(=O)(=O)c2ccc3c(c2)NC(=O)CO3)c(Cl)c1 (stereo not given),inactive: -8.35%
22,O=C(Nc1ccccc1C(F)(F)F)c1ccc2oc(=O)c(S(=O)(=O)c3ccc(F)cc3)cc2c1,inactive: -4.81%
23,O=C(NCCC1=CCCCC1)c1ccc2c(=O)n3nc(Nc4ccccc4)sc3nc2c1,inactive: 2.08%
